For eleven substances, binding results are on record in paper PMC10382678.

Sequences of proteins named here, by UniProt entry; tags and fusion partners are left off. A change or cut given only in a name is not applied to a line headed by its entry. A line that says so, or that is headed by a name, gives the form on record, which may keep a tag or linker. Residues count along the entry.
UniProt Q9QYP1: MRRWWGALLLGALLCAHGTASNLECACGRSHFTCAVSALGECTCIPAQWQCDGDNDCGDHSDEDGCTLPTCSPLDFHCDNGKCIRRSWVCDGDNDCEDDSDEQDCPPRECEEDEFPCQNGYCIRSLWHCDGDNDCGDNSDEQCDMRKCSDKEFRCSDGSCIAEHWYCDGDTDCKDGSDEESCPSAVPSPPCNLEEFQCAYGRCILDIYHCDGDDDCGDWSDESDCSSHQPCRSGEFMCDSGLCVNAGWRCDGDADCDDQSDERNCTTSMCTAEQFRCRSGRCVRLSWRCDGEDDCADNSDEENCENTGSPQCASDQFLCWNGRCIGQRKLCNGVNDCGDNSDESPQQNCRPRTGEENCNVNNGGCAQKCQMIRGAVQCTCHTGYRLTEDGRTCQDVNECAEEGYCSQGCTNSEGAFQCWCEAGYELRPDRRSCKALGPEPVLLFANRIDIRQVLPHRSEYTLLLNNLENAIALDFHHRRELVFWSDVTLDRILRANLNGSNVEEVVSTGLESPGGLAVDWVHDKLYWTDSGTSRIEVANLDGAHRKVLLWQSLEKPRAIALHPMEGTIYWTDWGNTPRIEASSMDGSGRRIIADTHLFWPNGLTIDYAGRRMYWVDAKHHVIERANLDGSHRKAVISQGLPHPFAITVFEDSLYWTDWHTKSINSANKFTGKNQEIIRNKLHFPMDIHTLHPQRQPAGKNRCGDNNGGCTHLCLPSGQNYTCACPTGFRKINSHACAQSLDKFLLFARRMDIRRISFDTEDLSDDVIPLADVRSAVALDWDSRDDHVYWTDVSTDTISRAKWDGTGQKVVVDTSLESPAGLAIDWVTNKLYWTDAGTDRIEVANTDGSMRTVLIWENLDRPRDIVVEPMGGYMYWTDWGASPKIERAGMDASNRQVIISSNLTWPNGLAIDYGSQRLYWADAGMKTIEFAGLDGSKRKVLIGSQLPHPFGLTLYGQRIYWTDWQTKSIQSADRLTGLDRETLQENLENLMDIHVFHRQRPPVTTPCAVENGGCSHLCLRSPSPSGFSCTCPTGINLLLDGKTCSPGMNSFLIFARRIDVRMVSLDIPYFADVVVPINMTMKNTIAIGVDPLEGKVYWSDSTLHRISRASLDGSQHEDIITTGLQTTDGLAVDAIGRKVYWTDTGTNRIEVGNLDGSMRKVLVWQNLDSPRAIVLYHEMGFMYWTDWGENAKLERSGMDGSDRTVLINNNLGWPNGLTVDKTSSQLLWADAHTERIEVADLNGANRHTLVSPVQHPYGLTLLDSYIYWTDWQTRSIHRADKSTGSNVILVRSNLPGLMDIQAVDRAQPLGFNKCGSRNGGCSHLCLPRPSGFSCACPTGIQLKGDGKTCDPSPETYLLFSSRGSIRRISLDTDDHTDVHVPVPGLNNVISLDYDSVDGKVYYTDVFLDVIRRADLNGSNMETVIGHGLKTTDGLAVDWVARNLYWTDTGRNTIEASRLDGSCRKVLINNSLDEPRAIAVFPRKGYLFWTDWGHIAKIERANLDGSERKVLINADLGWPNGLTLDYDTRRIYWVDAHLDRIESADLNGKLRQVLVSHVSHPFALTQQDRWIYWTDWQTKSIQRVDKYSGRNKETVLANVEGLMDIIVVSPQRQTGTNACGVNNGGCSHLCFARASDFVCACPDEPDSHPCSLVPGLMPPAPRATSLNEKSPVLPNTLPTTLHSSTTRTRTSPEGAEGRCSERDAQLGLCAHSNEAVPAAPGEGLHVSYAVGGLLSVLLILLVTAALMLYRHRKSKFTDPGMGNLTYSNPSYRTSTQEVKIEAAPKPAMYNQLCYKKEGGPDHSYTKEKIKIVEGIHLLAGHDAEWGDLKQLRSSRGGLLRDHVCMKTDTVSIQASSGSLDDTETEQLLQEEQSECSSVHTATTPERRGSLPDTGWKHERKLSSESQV
UniProt Q8VI56: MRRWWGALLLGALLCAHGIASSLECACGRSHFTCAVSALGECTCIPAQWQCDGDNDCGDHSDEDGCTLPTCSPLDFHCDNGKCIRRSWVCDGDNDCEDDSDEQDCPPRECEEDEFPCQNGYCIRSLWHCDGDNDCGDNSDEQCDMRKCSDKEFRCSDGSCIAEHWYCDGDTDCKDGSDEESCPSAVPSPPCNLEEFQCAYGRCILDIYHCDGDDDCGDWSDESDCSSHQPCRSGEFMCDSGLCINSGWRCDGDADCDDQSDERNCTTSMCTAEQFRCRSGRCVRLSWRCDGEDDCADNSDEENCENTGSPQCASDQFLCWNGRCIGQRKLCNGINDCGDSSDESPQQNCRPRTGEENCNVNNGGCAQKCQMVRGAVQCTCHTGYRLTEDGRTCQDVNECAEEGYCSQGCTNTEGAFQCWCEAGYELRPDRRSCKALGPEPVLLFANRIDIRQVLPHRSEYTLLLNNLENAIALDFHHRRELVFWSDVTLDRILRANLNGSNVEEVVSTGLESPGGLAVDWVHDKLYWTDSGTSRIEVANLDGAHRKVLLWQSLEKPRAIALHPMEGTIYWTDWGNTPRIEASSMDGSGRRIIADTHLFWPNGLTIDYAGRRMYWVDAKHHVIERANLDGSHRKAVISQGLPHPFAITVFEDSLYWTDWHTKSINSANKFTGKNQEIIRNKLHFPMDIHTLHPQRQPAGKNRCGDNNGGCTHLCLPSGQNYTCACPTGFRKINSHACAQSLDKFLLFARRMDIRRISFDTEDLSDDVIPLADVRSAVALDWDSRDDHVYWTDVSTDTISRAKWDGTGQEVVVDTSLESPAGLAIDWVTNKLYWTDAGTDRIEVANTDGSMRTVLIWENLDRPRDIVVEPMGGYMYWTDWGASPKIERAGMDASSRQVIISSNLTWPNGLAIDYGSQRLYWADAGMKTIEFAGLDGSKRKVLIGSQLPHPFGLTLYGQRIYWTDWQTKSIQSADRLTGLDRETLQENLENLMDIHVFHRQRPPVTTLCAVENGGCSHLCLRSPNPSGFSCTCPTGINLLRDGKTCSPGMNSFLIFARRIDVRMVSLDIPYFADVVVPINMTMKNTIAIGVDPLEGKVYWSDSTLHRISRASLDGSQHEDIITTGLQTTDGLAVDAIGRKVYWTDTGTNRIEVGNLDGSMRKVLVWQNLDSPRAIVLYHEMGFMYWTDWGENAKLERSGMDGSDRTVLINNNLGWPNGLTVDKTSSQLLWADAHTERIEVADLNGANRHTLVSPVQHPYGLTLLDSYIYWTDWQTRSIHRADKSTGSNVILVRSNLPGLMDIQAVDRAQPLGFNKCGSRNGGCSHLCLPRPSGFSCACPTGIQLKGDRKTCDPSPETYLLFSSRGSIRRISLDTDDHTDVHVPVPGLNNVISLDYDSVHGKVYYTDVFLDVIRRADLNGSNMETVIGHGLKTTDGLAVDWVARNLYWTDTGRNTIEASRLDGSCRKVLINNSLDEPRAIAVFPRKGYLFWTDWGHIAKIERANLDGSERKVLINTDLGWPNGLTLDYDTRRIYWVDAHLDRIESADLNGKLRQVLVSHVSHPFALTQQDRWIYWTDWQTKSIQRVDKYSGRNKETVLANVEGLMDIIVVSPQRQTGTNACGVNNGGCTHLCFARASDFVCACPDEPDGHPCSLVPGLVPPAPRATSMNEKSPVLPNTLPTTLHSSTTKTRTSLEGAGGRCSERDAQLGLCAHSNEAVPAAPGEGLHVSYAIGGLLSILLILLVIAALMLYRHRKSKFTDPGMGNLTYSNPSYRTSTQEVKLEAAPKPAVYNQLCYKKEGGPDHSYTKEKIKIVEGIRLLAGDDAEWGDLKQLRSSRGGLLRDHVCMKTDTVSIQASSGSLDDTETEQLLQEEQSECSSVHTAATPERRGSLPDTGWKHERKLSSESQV
endogenous LRP4 of ColQ-/- myotubes: residues 21-1905 of Q8VI56
ectoLRP4Δ3-AP (mouse ectoLRP4-AP lacking amino acids 1048 to 1353, including the third β-propeller domain) (Q8VI56, form named): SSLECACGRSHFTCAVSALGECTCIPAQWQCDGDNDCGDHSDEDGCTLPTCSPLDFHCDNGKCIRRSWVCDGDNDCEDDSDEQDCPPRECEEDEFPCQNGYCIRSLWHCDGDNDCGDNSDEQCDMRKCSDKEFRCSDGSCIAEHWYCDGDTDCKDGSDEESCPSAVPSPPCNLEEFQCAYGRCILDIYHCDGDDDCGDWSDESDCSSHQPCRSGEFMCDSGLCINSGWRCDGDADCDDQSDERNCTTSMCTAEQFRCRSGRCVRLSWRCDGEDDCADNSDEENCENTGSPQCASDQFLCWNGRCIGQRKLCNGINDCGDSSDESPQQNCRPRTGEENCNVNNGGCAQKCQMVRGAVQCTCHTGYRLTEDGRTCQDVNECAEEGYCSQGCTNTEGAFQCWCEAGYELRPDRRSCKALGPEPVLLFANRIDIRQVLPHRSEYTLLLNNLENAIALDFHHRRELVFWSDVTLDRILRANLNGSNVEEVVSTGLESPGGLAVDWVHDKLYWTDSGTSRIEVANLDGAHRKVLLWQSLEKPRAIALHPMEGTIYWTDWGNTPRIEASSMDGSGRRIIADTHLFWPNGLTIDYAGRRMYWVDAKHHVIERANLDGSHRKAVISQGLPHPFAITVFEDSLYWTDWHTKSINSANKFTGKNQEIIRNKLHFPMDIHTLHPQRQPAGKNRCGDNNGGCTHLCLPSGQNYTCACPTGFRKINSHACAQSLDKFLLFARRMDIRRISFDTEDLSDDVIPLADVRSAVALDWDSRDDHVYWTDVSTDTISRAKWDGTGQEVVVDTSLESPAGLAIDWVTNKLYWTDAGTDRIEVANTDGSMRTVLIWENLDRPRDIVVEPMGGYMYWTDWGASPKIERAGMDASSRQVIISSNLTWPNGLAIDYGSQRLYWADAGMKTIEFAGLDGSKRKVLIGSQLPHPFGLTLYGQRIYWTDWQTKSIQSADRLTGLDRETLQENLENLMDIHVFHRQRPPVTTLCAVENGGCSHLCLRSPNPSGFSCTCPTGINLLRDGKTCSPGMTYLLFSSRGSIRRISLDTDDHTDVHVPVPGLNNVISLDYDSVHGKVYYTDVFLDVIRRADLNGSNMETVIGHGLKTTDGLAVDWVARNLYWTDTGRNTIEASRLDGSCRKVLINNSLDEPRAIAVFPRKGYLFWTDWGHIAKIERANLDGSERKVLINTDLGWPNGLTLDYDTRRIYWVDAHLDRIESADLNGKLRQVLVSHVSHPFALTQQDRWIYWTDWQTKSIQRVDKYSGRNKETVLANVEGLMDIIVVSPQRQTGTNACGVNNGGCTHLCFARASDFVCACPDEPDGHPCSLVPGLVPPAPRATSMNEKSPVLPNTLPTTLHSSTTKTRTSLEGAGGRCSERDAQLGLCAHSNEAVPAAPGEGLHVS
ectoLRP4Δ234-AP (mouse ectoLRP4-AP with amino acids 737 to 1693 deleted) (Q8VI56, form named): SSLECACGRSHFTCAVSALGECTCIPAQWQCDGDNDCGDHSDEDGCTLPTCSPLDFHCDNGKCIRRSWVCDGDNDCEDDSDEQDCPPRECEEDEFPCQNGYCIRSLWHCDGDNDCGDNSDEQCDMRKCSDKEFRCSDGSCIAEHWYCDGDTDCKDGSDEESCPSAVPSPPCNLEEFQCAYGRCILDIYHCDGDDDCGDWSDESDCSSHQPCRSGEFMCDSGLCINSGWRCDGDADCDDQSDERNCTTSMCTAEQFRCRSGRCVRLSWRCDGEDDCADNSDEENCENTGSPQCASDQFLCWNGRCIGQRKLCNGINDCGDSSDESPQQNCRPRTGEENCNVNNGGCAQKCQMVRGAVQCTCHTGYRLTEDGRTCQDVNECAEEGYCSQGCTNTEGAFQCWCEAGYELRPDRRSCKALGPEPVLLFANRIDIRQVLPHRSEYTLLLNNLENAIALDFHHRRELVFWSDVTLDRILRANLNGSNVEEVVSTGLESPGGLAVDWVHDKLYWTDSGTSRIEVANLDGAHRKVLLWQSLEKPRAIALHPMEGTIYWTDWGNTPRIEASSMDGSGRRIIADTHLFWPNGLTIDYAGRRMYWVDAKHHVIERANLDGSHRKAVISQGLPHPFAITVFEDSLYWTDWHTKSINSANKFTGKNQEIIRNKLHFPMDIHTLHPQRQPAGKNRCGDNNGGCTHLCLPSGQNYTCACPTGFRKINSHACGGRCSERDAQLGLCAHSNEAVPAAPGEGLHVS
UniProt O35167, residues 23-458: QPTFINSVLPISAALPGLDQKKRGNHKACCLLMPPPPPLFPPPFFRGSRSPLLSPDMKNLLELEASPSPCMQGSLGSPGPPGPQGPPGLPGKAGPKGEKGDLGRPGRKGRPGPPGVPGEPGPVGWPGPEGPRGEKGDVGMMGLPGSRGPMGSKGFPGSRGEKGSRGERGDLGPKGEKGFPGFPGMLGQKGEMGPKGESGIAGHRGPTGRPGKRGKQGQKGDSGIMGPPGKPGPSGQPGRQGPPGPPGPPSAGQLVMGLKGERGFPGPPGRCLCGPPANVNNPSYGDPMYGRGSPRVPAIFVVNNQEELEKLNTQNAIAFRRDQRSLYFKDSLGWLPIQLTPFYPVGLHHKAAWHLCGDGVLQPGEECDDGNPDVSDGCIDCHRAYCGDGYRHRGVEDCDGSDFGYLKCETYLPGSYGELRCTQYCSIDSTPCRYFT

Assay [1] addresses ectoLRP6-Myc (human LRP6-Myc with the intracellular and transmembrane domains deleted) (human) (UniProt O75581). Kind of assay: pull-down; ectoLRP4-Myc, ectoLRP6-Myc or ectoMuSK-Myc from conditioned media immobilised on protein G magnetic beads precoated with anti-Myc; incubated with 0.25 Ellman units of sucrose gradient-purified AChE-ColQ (A12) or AChE (G1), 4 °C overnight; bound AChE activity measured by the Ellman method; only the binder purified.

Assay [2] deals with ectoLRP4-Myc (extracellular domain of rat LRP4 fused to one Myc tag followed by a 6xHis tag) (rat) (UniProt Q9QYP1). The assay is described as above.
The target of assay [3] is T1, ectoMuSK-Myc (secreted Myc-tagged ectodomain of rat MuSK, Myc followed by 6xHis at the COOH terminus) (rat) (UniProt Q62838).
T1 sequence: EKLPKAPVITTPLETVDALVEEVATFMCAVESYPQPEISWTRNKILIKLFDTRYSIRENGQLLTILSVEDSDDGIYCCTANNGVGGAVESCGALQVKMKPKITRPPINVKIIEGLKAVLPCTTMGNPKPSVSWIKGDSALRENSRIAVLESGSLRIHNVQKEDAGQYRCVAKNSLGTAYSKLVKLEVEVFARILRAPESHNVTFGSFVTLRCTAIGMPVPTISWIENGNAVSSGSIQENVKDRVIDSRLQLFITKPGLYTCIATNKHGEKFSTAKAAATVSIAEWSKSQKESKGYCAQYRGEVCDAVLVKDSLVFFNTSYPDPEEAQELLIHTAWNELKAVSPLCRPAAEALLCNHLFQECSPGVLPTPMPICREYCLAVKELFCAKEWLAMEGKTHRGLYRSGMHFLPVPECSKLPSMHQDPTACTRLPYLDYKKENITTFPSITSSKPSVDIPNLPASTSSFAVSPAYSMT
The description is as above.

Assay [4] addresses LRP4-Myc (rat low-density lipoprotein receptor-related protein 4 with a C-terminal Myc tag) (rat) (UniProt Q9QYP1). Kind of assay: co-IP; same experiment as in HEK 293T cells but in COS cells; data not shown.
Assay [5] has the same target. Briefly: co-IP; HEK 293T cells cotransfected with two constructs, lysed 48 h later in 50 mM Tris, 150 mM NaCl, 3 mM EDTA, 20 mM NaF, 1% Triton X-100, pH 7.4; IP with anti-Flag (ColQ-Flag) or anti-Myc antibodies and protein G Dynabeads, 3 h at 4 °C; Western immunoblot. On the technique in general: A western blot detects proteins with antibodies after separation by electrophoresis.

Assay [6] addresses endogenous LRP4 of ColQ-/- myotubes (UniProt Q8VI56). Briefly: co-IP; ColQ-/- myotubes transduced with rAAV2-ColQ-Myc, lysed about 4 days later; IP of endogenous LRP4 with polyclonal anti-LRP4 antibodies; blot with anti-Myc.
Assay [7] has as its target ColQ-Flag (rat collagen Q, ColQ1a, with a Flag epitope after amino acid 26) (rat) (UniProt O35167). Briefly: co-IP; same experiment as in HEK 293T cells but in COS cells; data not shown.
Assay [8] has the same target. Kind of assay: co-IP; HEK 293T cells cotransfected with two constructs, lysed 48 h later in 50 mM Tris, 150 mM NaCl, 3 mM EDTA, 20 mM NaF, 1% Triton X-100, pH 7.4; IP with anti-Flag (ColQ-Flag) or anti-Myc antibodies and protein G Dynabeads, 3 h at 4 °C; Western immunoblot.
For assay [9] the target is unchanged. Kind of assay: co-IP; HEK 293T cells cotransfected with ColQ-Flag, MuSK-HA and LRP4-Myc together; IP with anti-Flag; blot with anti-HA or anti-Myc; band intensities normalised to precipitated ColQ and compared with the cotransfection of two constructs.
The target is the same in assay [10]. Kind of assay: pull-down; ColQ-Flag from HEK 293T lysates immobilised on anti-Flag protein G magnetic beads; incubated with purified ectoLRP4-AP or with 500 nM His-tagged recombinant neural agrin, 4 °C overnight; Western immunoblot; only the binder purified.
Assay [11] deals with AChE-ColQ hetero-oligomers, A12 asymmetric forms (ColQ-Flag trimer with three AChE tetramers) (rat) (UniProt O35167+P37136). Briefly: ELISA; plate-binding assay with wells coated with sucrose gradient-purified A12 forms of AChE-ColQ-Flag; data not shown; only the target purified.
In assay [12] the target is ColQ-Flag (rat collagen Q, ColQ1a, with a Flag epitope after amino acid 26) (rat) (UniProt O35167). Kind of assay: ELISA; plate-binding assay, competition: ColQ-coated wells incubated with 25 nM ectoLRP4-AP with 500 nM neural agrin or BSA as control; the pair that is blocked. In general terms: An ELISA detects its analyte on a solid surface through an enzyme-linked reagent.

The target is the same in assay [13]. Briefly: ELISA; plate-binding assay (modified ELISA): ColQ-Flag or AdipoQ-Flag from HEK 293T lysates immobilised on anti-Flag precoated wells; AP or AP fusion proteins in conditioned media (10 to 100 nM, equal AP activity) in TBS-0.05% Tween, 1 mM MgCl2, overnight at 4 °C; bound AP activity read with pNPP at ….
The target in assay [14] is AdipoQ-Flag (Flag-tagged human adiponectin) (human) (UniProt Q15848). Described as above.
Assay [15] concerns the target ColQ-Flag (rat collagen Q, ColQ1a, with a Flag epitope after amino acid 26) (rat) (UniProt O35167). Kind of assay: pull-down; ColQ-Flag-coated beads incubated with purified ectoLRP4-Myc or purified ectoMuSK-Myc; data not shown; only the binder purified.
Assay [16] shares this target. Kind of assay: pull-down; ColQ-Flag or ColQΔCt-Flag from HEK 293T lysates immobilised on protein G magnetic beads precoated with anti-Flag; incubated with conditioned media of HEK 293T cells containing the Myc-tagged ectodomains, 4 °C overnight; Western immunoblot.
Assay [17] has the same target. Kind of assay: condition: also at much higher concentrations of ectoLRP6-Myc (Fig. 2B); pull-down; ColQ-Flag or ColQΔCt-Flag from HEK 293T lysates immobilised on protein G magnetic beads precoated with anti-Flag; incubated with conditioned media of HEK 293T cells containing the Myc-tagged ectodomains, 4 °C overnight; Western immunoblot.
Assay [18] has the same target. Kind of assay: condition: also at a 10 times higher concentration (not shown); ELISA; plate-binding assay (modified ELISA): ColQ-Flag or AdipoQ-Flag from HEK 293T lysates immobilised on anti-Flag precoated wells; AP or AP fusion proteins in conditioned media (10 to 100 nM, equal AP activity) in TBS-0.05% Tween, 1 mM MgCl2, overnight at 4 °C; bound AP activity read with pNPP at ….

Assay [19] addresses ColQ-GFP (rat ColQ1a with a GFP tag after amino acid 20) (rat) (UniProt O35167). Briefly: co-IP; co-immunoprecipitation with ColQ-GFP, ColQ-Myc and nontagged LRP4 constructs; data not shown.
For assay [20], the target named is T2, ColQ-Myc (mouse ColQ1a with a Myc tag at the COOH terminus) (mouse) (UniProt O35348).
T2 sequence: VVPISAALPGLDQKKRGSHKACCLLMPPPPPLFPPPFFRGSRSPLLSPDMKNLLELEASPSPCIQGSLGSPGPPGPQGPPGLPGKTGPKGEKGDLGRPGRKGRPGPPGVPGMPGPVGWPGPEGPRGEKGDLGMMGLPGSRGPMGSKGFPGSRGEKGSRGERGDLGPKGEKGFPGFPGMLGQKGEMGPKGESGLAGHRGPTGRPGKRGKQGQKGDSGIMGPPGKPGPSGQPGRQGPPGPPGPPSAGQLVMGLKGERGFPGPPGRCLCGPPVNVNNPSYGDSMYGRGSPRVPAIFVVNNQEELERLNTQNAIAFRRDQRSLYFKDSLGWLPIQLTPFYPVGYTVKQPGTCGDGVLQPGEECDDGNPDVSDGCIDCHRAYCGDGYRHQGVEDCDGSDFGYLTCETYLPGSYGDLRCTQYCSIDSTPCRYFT
The assay is described as above.

No constants are given. Whether binding was seen depends on the method and setting. For part of these data: In cells and extracts the contact can be indirect. Some entries that bind do so weakly or less than the wild type. For part of these data: Where a sequence is shown, tags or fusion partners need not be part of it.

Regarding “AChE-ColQ hetero-oligomers, A12 asymmetric forms (ColQ-Flag trimer with three AChE tetramers) (from UniProt O35167 23-458; P37136 32-614) (complex)”, the binding entry in assay [1] is “no binding (tested: 0.25 Ellman unit)”; in assay [2], “binds”; in [3] it was “no binding (tested: 0.25 Ellman unit)”.

On to “ColQ-Flag (rat collagen Q, ColQ1a, with a Flag epitope after amino acid 26) (from UniProt O35167 23-458)”, for which the binding result in [4] and in assay [5] was “binds” in each case.

For the substance “ColQ-Myc expressed from rAAV2-ColQ-Myc (human ColQ1a with a Myc tag after amino acid 24) (from UniProt Q9Y215 23-455)”, the binding result in assay [6] was “binds”.

As for “LRP4-Myc (rat low-density lipoprotein receptor-related protein 4 with a C-terminal Myc tag) (from UniProt Q9QYP1 21-1905)”, the binding result in [7], in assay [8] and in assay [9] was “binds” each time.

“ectoLRP4-AP (alkaline phosphatase-conjugated ectodomain of mouse LRP4) (from UniProt Q8VI56 21-1725) (domain or fragment)”: the binding result in assay [10] was “binds”; in assay [11], “binds”; in [12] it was “binds”; in [13], “binds”; in assay [14] it was “no binding”.

On to “ectoLRP4-Myc (extracellular domain of rat LRP4 fused to one Myc tag followed by a 6xHis tag) (from UniProt Q9QYP1 21-1723) (domain or fragment)”, for which the binding entry in assay [15], in assay [8] and in assay [16] was “binds” in each case.

As to “ectoLRP4Δ3-AP (mouse ectoLRP4-AP lacking amino acids 1048 to 1353, including the third β-propeller domain) (from UniProt Q8VI56 21-1725) (domain or fragment)”, the binding entry in assay [13] is on record as “binds”.

Consider “ectoLRP4Δ234-AP (mouse ectoLRP4-AP with amino acids 737 to 1693 deleted) (from UniProt Q8VI56 21-1725) (domain or fragment)”, for which the binding result in [13] is recorded as “binds”.

With “ectoLRP6-Myc (human LRP6-Myc with the intracellular and transmembrane domains deleted) (from UniProt O75581 20-1370) (domain or fragment)”, the binding entry in assay [17] is reported as “no binding”.

Regarding “human placental alkaline phosphatase (AP) (from UniProt P05187 23-506) (enzyme)”, the binding entry in [18] and in assay [14] was “no binding” throughout.

On to “nontagged LRP4 (from UniProt Q9QYP1 21-1905) (receptor)”, for which the binding result in assay [19] and in assay [20] was “binds” each time.
